The source of these data is publication PMC6639383.

By UniProt entry, the sequences of proteins in these tests, tags left out. Where a name states a change or a piece, a line headed by the entry shows the natural chain unless it says otherwise. Chains listed by the source or under a name are the forms on record and can include a tag or linker. Residues count along the entry.
Protein kinase C substrate 80K-H (PRKCSH), endogenous (P14314, residues 15-528): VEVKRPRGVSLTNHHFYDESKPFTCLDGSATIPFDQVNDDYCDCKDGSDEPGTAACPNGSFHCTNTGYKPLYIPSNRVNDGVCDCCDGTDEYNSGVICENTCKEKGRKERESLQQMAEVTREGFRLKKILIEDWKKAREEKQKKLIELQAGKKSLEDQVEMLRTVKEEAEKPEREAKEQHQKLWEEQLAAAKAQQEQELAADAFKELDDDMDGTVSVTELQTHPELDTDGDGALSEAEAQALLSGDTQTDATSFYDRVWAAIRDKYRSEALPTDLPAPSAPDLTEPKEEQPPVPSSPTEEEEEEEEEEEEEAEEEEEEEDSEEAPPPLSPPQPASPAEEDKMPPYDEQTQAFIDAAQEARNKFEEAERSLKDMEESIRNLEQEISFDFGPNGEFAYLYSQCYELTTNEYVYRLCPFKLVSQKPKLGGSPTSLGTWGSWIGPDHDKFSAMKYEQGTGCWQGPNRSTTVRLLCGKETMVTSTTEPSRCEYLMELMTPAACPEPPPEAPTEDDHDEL
Full-length wild-type PRKCSH with a C-terminal Flag-tag (P14314-2, form named): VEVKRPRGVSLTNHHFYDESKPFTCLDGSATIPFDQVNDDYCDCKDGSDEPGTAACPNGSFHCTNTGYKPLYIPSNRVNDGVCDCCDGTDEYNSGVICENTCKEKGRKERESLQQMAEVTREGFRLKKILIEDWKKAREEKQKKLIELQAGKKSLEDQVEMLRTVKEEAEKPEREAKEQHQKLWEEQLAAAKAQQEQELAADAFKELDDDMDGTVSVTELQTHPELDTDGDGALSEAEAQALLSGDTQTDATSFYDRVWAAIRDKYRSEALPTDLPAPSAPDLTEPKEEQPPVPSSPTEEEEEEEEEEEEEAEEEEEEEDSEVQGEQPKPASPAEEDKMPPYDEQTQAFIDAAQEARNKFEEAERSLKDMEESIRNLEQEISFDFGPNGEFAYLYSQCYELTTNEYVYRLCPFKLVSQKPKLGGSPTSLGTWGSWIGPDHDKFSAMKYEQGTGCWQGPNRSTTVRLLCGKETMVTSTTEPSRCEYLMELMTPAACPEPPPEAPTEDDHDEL
UniProt O75460, residues 19-977: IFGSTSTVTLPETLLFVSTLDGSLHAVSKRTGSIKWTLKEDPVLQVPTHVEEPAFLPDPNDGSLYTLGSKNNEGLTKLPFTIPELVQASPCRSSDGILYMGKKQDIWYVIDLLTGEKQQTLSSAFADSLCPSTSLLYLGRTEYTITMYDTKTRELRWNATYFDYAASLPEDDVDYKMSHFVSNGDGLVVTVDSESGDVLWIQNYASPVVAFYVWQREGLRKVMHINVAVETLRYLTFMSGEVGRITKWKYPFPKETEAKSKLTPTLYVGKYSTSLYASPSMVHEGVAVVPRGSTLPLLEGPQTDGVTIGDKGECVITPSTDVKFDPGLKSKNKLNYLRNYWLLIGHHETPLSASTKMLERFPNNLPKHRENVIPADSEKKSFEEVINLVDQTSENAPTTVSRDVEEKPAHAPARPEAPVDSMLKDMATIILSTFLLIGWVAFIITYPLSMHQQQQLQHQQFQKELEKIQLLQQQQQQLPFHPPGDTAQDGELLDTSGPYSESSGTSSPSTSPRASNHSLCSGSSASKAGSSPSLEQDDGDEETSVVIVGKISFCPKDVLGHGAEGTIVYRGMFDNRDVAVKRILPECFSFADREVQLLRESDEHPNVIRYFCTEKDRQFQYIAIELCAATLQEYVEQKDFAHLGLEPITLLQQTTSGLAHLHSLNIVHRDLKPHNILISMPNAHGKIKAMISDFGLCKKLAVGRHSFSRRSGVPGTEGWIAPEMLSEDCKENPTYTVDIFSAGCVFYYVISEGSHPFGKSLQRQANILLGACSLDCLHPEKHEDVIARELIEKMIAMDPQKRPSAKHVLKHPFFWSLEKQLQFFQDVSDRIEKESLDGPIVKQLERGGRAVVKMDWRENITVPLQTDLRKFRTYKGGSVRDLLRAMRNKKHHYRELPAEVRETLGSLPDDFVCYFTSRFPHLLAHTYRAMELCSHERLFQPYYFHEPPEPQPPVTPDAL

The target in experiment [1] is Protein kinase C substrate 80K-H (PRKCSH), endogenous (human (endogenous in L02 and Huh-7)) (UniProt P14314). Kind of experiment: co-IP; L02 cells transfected with IRE1α-FV, resting cells; precipitation with anti-PRKCSH antibody.
Experiment [2] shares this target. Description: co-IP; L02 cells transfected with IRE1α-FV, treated with 10 μg/mL TM; precipitation with anti-PRKCSH antibody.
Experiment [3] concerns the target inositol-requiring enzyme 1α (IRE1α/ERN1), endogenous (human (endogenous in L02 and Huh-7)) (UniProt O75460). Description: co-IP; L02 cells transfected with Flag-tagged PRKCSH constructs, treated with 10 μg/mL TM (mutants: 1 h); endogenous IRE1α; for PRK-Flag precipitation with anti-IRE1α antibody.
Experiment [4] has the same target. Description: condition: only 120 min of TM treatment (L02 cells); co-IP; endogenous proteins; lysates of L02 cells at 120 min of 10 μg/mL TM treatment.
Experiment [5] has the same target. Description: co-IP; endogenous proteins; lysates of resting (untreated) L02 and Huh-7 cells; lysis buffer 50 mM Tris-HCl pH 7.2, 10 mM NaCl, 1% NP-40; protein A agarose.
Experiment [6] shares this target. Description: co-IP; endogenous proteins; lysates of L02 cells treated with 10 μg/mL TM or glucose-free medium and of Huh-7 cells treated with 10 μg/mL TM; lysis buffer 50 mM Tris-HCl pH 7.2, 10 mM NaCl, 1% NP-40; protein A agarose; for GIIα precipitation with anti-GIIα antibody.

No constants are given. Whether binding was seen depends on the method and setting. Binding seen in cells or lysates may run through a third protein. Some entries that bind do so weakly or less than the wild type.

As for “Flag- and Venus-tagged human IRE1α construct (IRE1α-FV) (from UniProt O75460 19-977)”, the binding entry in experiment [1] is listed as “binds weakly”; in experiment [2], “binds”.

Take “Full-length wild-type PRKCSH with a C-terminal Flag-tag (from UniProt P14314-2 15-525)”: the binding entry in experiment [3] is listed as “binds”.

“Protein kinase C substrate 80K-H (PRKCSH), endogenous (from UniProt P14314 15-528)”: the binding result in experiment [4] is “no binding”; in experiment [5], “no binding (condition: resting conditions (no ER stress))”; in experiment [6], “binds”.
